Assay results reported in the supplement of paper PMC11417369.
This is one part of the list.

tested on: PfHDP1 homeodomain (GST-tagged); assay: gcPBM binding intensity (ln(normalized median fluorescence intensity)); higher = stronger DNA binding
Outline: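 Probes on an Agilent 4 × 180k array were primer-extended, double-stranded and 36 bp long, taken from intergenic genomic regions, with negative controls added. GST-tagged P. falciparum DNA-binding domains from E. coli, about 25 μg on average, were applied to the array for 1 h in 1× PBS containing 1% milk, 0.2 mg/ml BSA, 0.5% salmon testes DNA and 0.03% Triton X-100. Binding intensity, obtained after Alexa488 anti-GST antibody detection and a 488 nm scan, is the highest Masliner-normalised natural-log median intensity across replicate spots of either probe orientation.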

Sequence | gcPBM binding intensity (ln)
GATATTATGTGTTTGGTATTTTTTGATGTTGGTAGG [XGTACX_negctrl_site563] | 6.81
GTATTACAACGACACACACACCTATATATCATAGTA [CACACA_site7877] | 6.99
ACATTAAAAAAAAAATGTACATAAATATTTTTCCTT [XGTACX_site4361] | 6.25
AATTTTATTCATTGAGCACACAAAATAAATTATCAA [CACACA_site9079] | 6.73
ATCTTTTATATAAAATGTACAGAGTTTGAAAGAATA [XGTACX_site8826] | 6.64
TGTAAATATATATATACACACACACCGAAGCAATAG [CACACA_site8960] | 7.46
CATACAGACATACATACACACATACATACAGACATA [CACACA_site6996] | 6.87
TAAAAAGGAAGACACACACACACATATATAAATATA [CACACA_site7657] | 6.82
GTATATCACACATTTGCATGTTGTCAATAGTTTATC [TGCATGCA_site134] | 6.93
TTTTTTTTTTTTTAAACATGCATATTAATATTATAT [TGCATGCA_site820] | 6.46
ATACAAATTGTTTAAAGTACAAATTACACCTCTTAA [XGTACX_site6888] | 6.21
TATATACACATATATAAACACACAAAAAAAAAAAAA [CACACA_site8626] | 6.47
ATTATATACATATATGCACACAAAAAAATATATATT [CACACA_site8508] | 9.93
AAAGGCTATCTTATATACTCCTAAAACGCGAACGTA [CACACA_negctrl_site396] | 6.12
ATAAATTCTATGTATACACACATATAAAATATAGAT [CACACA_site7296] | 6.74
AATATATAAATATTGTGTACTTATTTTTTTATATGT [XGTACX_site4377] | 6.54
TATCATTAATTTACATGTACATAAATGAATGTTTAT [XGTACX_site5608] | 6.09
TTCGTAATTTATATCACACACATATATCTATAATAA [CACACA_site7458] | 6.83
TTTTTTGTTATTAAAAGTACATTATATGCTAGTTAA [XGTACX_site8747] | 6.19
TTAAAAATATTATGTACACACATTTGAGATATTTGT [CACACA_site6953] | 6.26
TGAAATAAAATTTATACACACTTGCTAAATGATCAT [CACACA_site4265] | 6.53
CAATGGTCATTTAGTTGTACTTAATTTTAAATCAAA [XGTACX_site4075] | 6.21

Sequence | gcPBM binding intensity (ln)
AAAAAAAACGAACACACACACATTCAATATAAAACA [CACACA_site6170] | 6.8
AGAATATTTAAAAAAGGTACACAAAAACCAAAATAA [XGTACX_site8569] | 6.81
TTATTGCATATTTACACACGTACTAATTTAAACAAG [CACACA_site971] | 7.58
ATATATGACAAATGTAGTACAAATTATTGTATCATA [XGTACX_site3675] | 6.37
TATTAATACAGACACACACACACACCCAATAAAATA [CACACA_site243] | 6.97
ATAAATTCATATATGAGTACTAAAAATATCTTTTTC [XGTACX_site5541] | 6.6
TACAATTTAATATATACACACAAATAAATTATGCTT [CACACA_site856] | 6.4
AACAATTTATATAAAGCACACATGGGAAGGAAATAC [CACACA_site1712] | 7.65
GTAAGCACACATAGTTGTACATTAATAAAAATAAAT [XGTACX_site5876] | 6.53
ATATGTATGAAGTGTACACATATATTGTATTTTCTT [CACACA_site5503] | 6.59
TTCCTATAAAAAAACACACACATATAAATATATATA [CACACA_site2318] | 6.66
TAAACACATTATATATGTACATAATAAAAAAAAAAA [XGTACX_site7907] | 6.49
AAGTTATACACATCAACACACACATACAACGTGGTG [CACACA_site8312] | 6.98
ATATTAACTTTTATTACACACTCTCAACTTTTATTT [CACACA_site6176] | 6.93
TCACAAATGTATTATACACACAAGTTTTCTTTAATA [CACACA_site4107] | 6.65
ATAAAATACAAAGGGACACACATATGAGTCTACAAA [CACACA_site3092] | 6.24
ATTTATTTATTTTCATGTACATATGTAAATCAATAA [XGTACX_site3886] | 6.21
TATATAATATAATGTAGTACATGTTTTATTTTTTAC [XGTACX_site7735] | 6.4
TATATATTATATATATGTACTTATTTATTAATTTAT [XGTACX_site5253] | 6.56
ATATAAAATAAATAAGTGCAGATAAATTTATGTGAC [GTGCAC_site9504] | 8.05
TGTGGTTTTTATAATTGTACATATATATAAATCTAT [XGTACX_site4766] | 6.44
TATAATAAATCAAATGCACACACACTAATAAAAAAA [CACACA_site7937] | 9.89
